Screen size: about 45,000 compounds; about 65 (0.1%) were called active. Calls come from the whole dose curve; as a rule, active = well fitted activation curve with a large enough effect; inconclusive = small, poorly fitted or top-dose-only effect; inactive = no such curve, though single readings can be large or run the other way. The list shows a part of the results.
target: Galactocerebrosidase (Homo sapiens) (UniProt P54803); experiment: A Novel Cell-Based Assay to Identify Small Molecules for B -Galactocerebrosidase; settings: 145M-Twi-hGALC-G270D cells (Twitcher mouse brain line with human GALC G270D), HMU-beta-Gal fluorescence, 48 h; series mostly up to 57.5 µM; activation: at the top concentration; note: 0% is about no effect; nearly all actives have a fitted effect of over 65% in size
Procedure, shortened: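 Brain-derived Twitcher mouse 145M-Twi cells stably expressing human GALC-G270D or wild-type GALC, treated live, then residual GALC activity read by fluorescence of HMU-b-Gal substrate (0.1 mM final) in citrate-phosphate buffer pH 5.2 with sodium taurocholate. Signal increase indicates enhancement.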

UniProt P54803, sequence (P54803 whole entry, looked up): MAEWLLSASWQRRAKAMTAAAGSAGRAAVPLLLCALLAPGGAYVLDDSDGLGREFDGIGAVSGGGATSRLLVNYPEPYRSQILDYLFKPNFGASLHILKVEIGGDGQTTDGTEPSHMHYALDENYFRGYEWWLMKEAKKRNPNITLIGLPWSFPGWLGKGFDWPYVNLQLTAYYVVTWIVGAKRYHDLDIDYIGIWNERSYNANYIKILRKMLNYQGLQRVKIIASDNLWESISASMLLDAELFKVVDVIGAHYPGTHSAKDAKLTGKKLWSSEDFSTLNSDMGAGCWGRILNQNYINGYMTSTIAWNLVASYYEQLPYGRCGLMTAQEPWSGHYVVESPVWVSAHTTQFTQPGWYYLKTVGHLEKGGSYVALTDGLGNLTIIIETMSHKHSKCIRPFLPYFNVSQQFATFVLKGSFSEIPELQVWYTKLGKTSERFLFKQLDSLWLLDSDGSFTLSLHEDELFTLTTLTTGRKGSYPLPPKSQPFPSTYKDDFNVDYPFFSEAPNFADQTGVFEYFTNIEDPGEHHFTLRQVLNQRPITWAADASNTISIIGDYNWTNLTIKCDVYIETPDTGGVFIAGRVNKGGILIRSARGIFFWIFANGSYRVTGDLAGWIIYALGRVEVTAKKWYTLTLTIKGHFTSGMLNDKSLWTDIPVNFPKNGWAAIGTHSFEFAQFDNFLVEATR

SMILES | activation
Cc1ccc2ncc(C(=O)NCc3ccccc3Cl)c(=O)n2c1 | inactive: -15.7%
CC1CCN(c2ccc(NC(=O)c3cccc(Cl)c3)cc2C(=O)O)CC1 | inactive: -10.4%
Cc1ccc(-c2cc(C(=O)NC(C)c3ccccc3)c3ccccc3n2)cc1C (stereo not drawn) | inactive: -9.56%
CCCS(=O)(=O)c1ncc(Cl)c(C(=O)N2CCN(c3ccc(OC)cc3)CC2)n1 | inactive: -13.3%
CCc1ccccc1NC(=O)c1ccc(F)c(S(=O)(=O)NC2CCCCCC2)c1 | inactive: -7.85%
Cc1ccc(NC(=O)CSc2nc3ccccc3c3nc(CCn4cncc4C)nn23)cc1F | inactive: -12.2%
CCOc1cccc2sc(N(Cc3cccnc3)C(=O)C3CCCCC3)nc12 | inactive: -8.63%
Cc1ccc(NC(=O)CSCc2cnn(-c3ccccc3)c2-n2cccc2)c(C)c1 | inactive: 6%
COc1ccc(-c2cc(C(=O)Oc3cccc(C)c3)c3ccccc3n2)cc1 | inactive: -12.7%
Cc1ccc(CCNC(=O)C2CCN(c3nnc(C)c4c(C)n(-c5ccccc5)nc34)CC2)cc1 | inactive: -3.52%
O=C(CCCCn1c(=O)c2ccccc2n(Cc2ccc(Cl)cc2)c1=O)NCc1ccccc1Cl | inactive: -1.06%
Cc1cc(OC(C)C(=O)N(Cc2ccco2)Cc2ccccc2F)cc(C)c1Cl (stereo not drawn) | inactive: 2.77%
COc1ccc(C)cc1NCc1nnc2n1CCCCC2 | inactive: 2.63%
Cn1c(=O)cc(OCC(=O)N2CCN(c3ccccc3)CC2)c2ccccc21 | inactive: -0.971%
COc1ccc(NC(=O)CSc2nc3ncccc3[nH]2)c(OC)c1 | inactive: -7.16%
COc1ccc(NC(=O)C2CCCN(C(=O)c3cnn(-c4ccc(F)cc4)c3-n3cccc3)C2)cc1 (stereo not drawn) | inactive: -0.0735%
CCC(=O)N1CCc2cc(Br)cc(S(=O)(=O)N3CCN(c4ccc(C(C)=O)cc4)CC3)c21 | inactive: -26.5%
CN1CCN(C(c2ccccc2Cl)c2sc3nc(-c4ccco4)nn3c2O)CC1 (stereo not drawn) | inactive: -12.9%
Cc1ccc(C)c(N2CCN(CCCNC(=O)C3COc4ccccc4C3)CC2)c1 (stereo not drawn) | inactive: -21.6%
CCN1CCC(N(Cc2ccc3c(c2)OCO3)C(=O)Nc2cc(Cl)ccc2C(=O)OC)CC1 | inactive: -29%
Cc1cccc(NC(=O)C2CCCN(S(=O)(=O)c3cccc4nonc34)C2)c1C (stereo not drawn) | inactive: -18.8%
CCCCN(C)CCCNC(=O)c1ccc2nc(N3CCCCC3)sc2c1 | inactive: -11.4%
CCN(C(=O)CCc1nc(-c2ccc(C)cc2)no1)c1cc(C)ccc1C | inactive: -12.1%
Cc1cc2oc(=O)c(CC(=O)NCCc3ccccc3)c(C)c2c2occ(C(C)(C)C)c12 | inactive: -12.3%
Cc1cccc(N2CCN(C(=O)c3cn(C4CCCCC4)c(=O)c4c3c3ccccc3n4C)CC2)c1C | inactive: -17.7%

SMILES | activation
Cc1cc(C(=O)O)c2c(=O)n(C)c(=O)n(C)c2n1 | inactive: -7%
COc1ccc(-c2cn3c(n2)sc2cc(C(=O)NC4CCCc5ccccc54)ccc23)cc1 (stereo not drawn) | inactive: 0.039%
CCCOC(=O)c1c(C)oc2c1cc(NS(=O)(=O)c1ccc(OCC)cc1)c1ccccc12 | inactive: -1.16%
COc1cc2c(cc1NC(=O)COc1cc(C)ccc1C)oc1ccccc12 | inactive: -10.6%
Cc1c(C)n(Cc2ccccc2)c2ccc(C(=O)NC(C)c3ccccc3)cc12 (stereo not drawn) | inactive: -12.3%
Cc1ccc(Cn2c(CNS(=O)(=O)c3c(C)cc(C)cc3C)nc3cccnc32)cc1 | inactive: -10.5%
CC(=O)Nc1nonc1-c1nnc(SCC(=O)Nc2ccc(F)cc2F)n1-c1ccccc1 | inactive: -9.3%
CCN(Cc1ccccc1)Cc1c(O)ccc2c(=O)c(-c3ccccc3OC)c(C(F)(F)F)oc12 | inactive: 10.1%
Cc1cccc(OCCSc2nc3ccccc3n2CC(=O)N2CCCCC2)c1C | inactive: -30.3%
CCc1ccc(OCC(=O)N(Cc2cccs2)c2ccc(Cl)cc2)cc1 | inactive: -12.1%
CCn1ccc2cc(S(=O)(=O)N3CCCN(C(=O)Nc4ccccc4OC)CC3)ccc21 | inactive: -10.8%
Cc1nc(CC(=O)Nc2ccc(C)c(C)c2)cs1 | inactive: -4.58%
COc1ccc(N2CC(NC(=O)/C=C\c3ccc(OC)c(OC)c3)CC2=O)cc1 (stereo not drawn) | inactive: -5.03%
CCc1ccc(-n2c(SC(CC)C(=O)N(CC)CC)nc3n[nH]c(C)c3c2=N)cc1 (stereo not drawn) | inactive: -13.7%
CCOC(=O)N1CCN(S(=O)(=O)N2CCCC(C(=O)NCc3cc(OC)ccc3OC)C2)CC1 (stereo not drawn) | inactive: 4.94%
CCOCCCNC(=O)C1CCCN(Cc2nc(-c3ccc(CC)cc3)oc2C)C1 (stereo not drawn) | inactive: -17.3%
COc1ccc(-c2nc(CS(=O)CC(=O)NCc3ccc(F)cc3)c(C)o2)cc1OC (stereo not drawn) | inactive: -13.7%
Cc1ccc(-c2nc3ccc(Cl)cn3c2Nc2ccc3c(c2)OCCO3)o1 | inactive: -11%
CCCCOc1ccc(C2=NC(c3ccncc3)=Nc3ccc(Br)cc3N2)cc1 | inactive: -5.44%
CCc1cccc(CC)c1NC(=O)Cn1nnc2sc(-c3ccccc3)cc2c1=O | inactive: -7.67%
COc1ccc(N2CCN(C(CNC(=O)CC(C)C)c3ccc4c(c3)OCO4)CC2)cc1 (stereo not drawn) | inactive: -9.77%
Cc1ccc(/C=C/c2onc(C)c2S(=O)(=O)N2CCC(C(=O)N3CC(C)Oc4ccccc43)CC2)cc1 (stereo not drawn) | inactive: -10.1%
CCCCCn1c(=O)[nH]c2cc(C(=O)N3CCN(c4ccccc4)CC3)ccc2c1=O | inactive: -15.8%
COc1ccc(OCC(=O)Nc2ccc(C(=O)OCc3cc(=O)n4nc(C)sc4n3)cc2)cc1 | inactive: -15.6%
CCOc1ccccc1N(CC)C(=O)Nc1cn(C)c(=O)c2ccccc12 | inactive: -11.7%

SMILES | activation
CCCCCC(=O)O[C@]1(C(C)=O)CC[C@H]2[C@@H]3CCC4=CC(=O)CC[C@]4(C)[C@H]3CC[C@@]21C | inactive: -8.26%
Cc1c(Cl)cccc1-n1ncc(C(=O)N2CCc3ccccc3C2)c1C1CCN(C(=O)OC(C)(C)C)CC1 | inactive: 19.1%
COc1ccccc1NC(=O)CCS(=O)(=O)c1ccc2nc(C)sc2c1 | inactive: -9.39%
Cc1ccc(C(Nc2ccccn2)c2ccc3cccnc3c2O)cc1 (stereo not drawn) | inactive: -9.85%
COc1cc(Cl)c(NS(=O)(=O)c2ccc3c(c2)CC(C)N3C(=O)C2CCC2)c(OC)c1 (stereo not drawn) | inactive: -25%
CC(=O)N1CCC(N(C(=O)Nc2ccc(C)c(F)c2)C(C)C)CC1 | inactive: -14.7%
Cc1ccc(NC(=O)c2oc3ccccc3c2NC(=O)Cc2cccs2)cc1 | inactive: -13.7%
CCOc1ccccc1NC(=O)Nc1nnc(N(C)Cc2ccccc2)s1 | inactive: -17.3%
O=C(CCn1cnc2onc(-c3ccc(F)cc3)c2c1=O)N1CCN(c2ccc(F)cc2)CC1 | inactive: -12%
CCn1c(C(=O)N2CCCC(C(=O)NCCCOC)C2)cc2sccc21 (stereo not drawn) | inactive: -25.1%
Cc1ccccc1NC(=O)c1c(NC(=O)C(C)Oc2cccc(Cl)c2)sc2c1CCCC2 (stereo not drawn) | inactive: -17.2%
CCc1c(C)sc2c1CCN(C(=O)Nc1ccccc1C(F)(F)F)C2c1ccccc1 (stereo not drawn) | inactive: -17%
COc1cc(Cl)c(C)cc1NC(=O)CCc1c(C)nc2cc(-c3cccc(F)c3)nn2c1C | inactive: -4.14%
COc1cccc(C(=O)Nc2cc(-c3cn4cccnc4n3)ccc2C)c1OC | inactive: -14.5%
CCOc1ccc(NC(=O)c2sc3nc4c(cc3c2N)CCCCCC4)cc1 | inactive: -15.6%
CC1CCN(C(=O)c2c(NC(=O)c3ccccc3F)sc3c2CCC(C(C)(C)C)C3)CC1 (stereo not drawn) | inactive: -11.9%
Cc1nc2ccccn2c(=O)c1NC(=O)c1c(F)cccc1F | inactive: -7.96%
O=C(c1cccs1)N(Cc1cccnc1)c1nc2ccc(F)cc2s1 | inactive: -17.5%
Cc1ccc(OCC(=O)Nc2ccccc2C(=O)OCc2cc(=O)n3nc(C4CC4)sc3n2)cc1 | inactive: 25.5%
CCCCNS(=O)(=O)c1ccc2nc(-c3cccnc3)cc(C(=O)NCCC)c2c1 | inactive: -5.57%
Oc1ccc(-c2nc3ccccn3c2Nc2ccc3c(c2)OCCO3)cc1 | inactive: -18.2%
CNCCCC12CCC(c3ccccc31)c1ccccc12 | inactive: -12.6%
CCn1cc(S(=O)(=O)c2ccc(OC)cc2)c(=O)c2cc(F)c(N3CCC(C)CC3)cc21 | inactive: -11.4%
Cc1ccc(CN(Cc2ccco2)C(=O)COc2c(C)cc(C)cc2C)cc1 | inactive: -18.4%
CCCN(CCC)CCCNC(=O)C1CCC(CNS(=O)(=O)c2cccc3nsnc23)CC1 (stereo not drawn) | inactive: -24%

SMILES | activation
CCOc1ccc(CNC(=O)C2CCN(S(=O)(=O)N3CCCCC3)CC2)cc1 | inactive: -3.47%
NCCNc1cccc2ccccc12 | inactive: -17.5%
NCCCCCc1nnc(SCc2ccc(F)cc2)o1 | inactive: -5.56%
COCCNC(=O)CSc1c2c(nc3cc(Cl)ccc13)CCCC2 | inactive: -8.9%
CCCc1nn2c(=O)cc(COC(=O)c3cccc(NC(=O)CCc4ccccc4)c3)nc2s1 | inactive: -4.55%
COCCCNC(=O)c1ccc2nc(Cc3ccc(OC)cc3)oc2c1 | inactive: -21.6%
Fc1ccccc1Oc1ncnc2c1oc1ccccc12 | inactive: -10.2%
Clc1ccc(-c2csc(=Nc3ccccc3)n2Cc2ccc3c(c2)OCO3)cc1 | inactive: -0.592%
COc1ccc(NC(=O)CSc2nc3ccccc3[nH]2)cc1 | inactive: -5.18%
Cc1cccc(OCc2nc(C#N)c(NCc3ccccc3Cl)o2)c1 | inactive: -13.8%
CCOC(=O)C1CCN(C(=O)CSc2n[nH]c(-c3ccccc3)n2)CC1 | inactive: -5.62%
Cc1ccc2nc(COc3ccc(NC(=O)COc4ccccc4F)cc3)cc(=O)n2c1 | inactive: -1.32%
CC(=O)Nc1nonc1-c1nnc(SCc2ccc(F)cc2)n1C | inactive: -8.86%
COc1ccc(NC(=O)COCc2cc(-c3ccco3)on2)cc1 | inactive: -19.1%
CCCCSc1nnc2n(-c3cccc(C)c3)c(=O)c3c4c(sc3n12)CCCC4 | inactive: -13.1%
COc1cc2c(=O)c(C(=O)c3ccc(C)c(C)c3)cn(Cc3ccccc3)c2cc1OC | inactive: -15.9%
Cc1cccc(N2CCN(C(=O)c3ccc4c(c3)N(Cc3ccccc3F)C(=O)c3ccccc3S4=O)CC2C)c1 (stereo not drawn) | inactive: -10.2%
Cc1cc(C)c2nc(NC(=O)c3ccc(S(=O)(=O)N4CCCC4)cc3)sc2c1 | inactive: 4.29%
COc1ccc(-c2cc3nc(C)c(CCC(=O)N4CCN(c5ccccc5)CC4)c(C)n3n2)c(OC)c1 | inactive: -15.8%
Cc1ccc(C)c(N2CCN(C(=O)Cn3c(=O)c4cccn4c4ccc(F)cc43)CC2)c1 | inactive: -7.34%
CCCCC(CC)CNC(=O)CCCc1nnc2n(CCC)c(=O)c3sccc3n12 (stereo not drawn) | inactive: 2.76%
Cc1ccc(NC(=O)CSCn2nnc3c(=O)[nH]c(Cc4ccc(F)cc4)nc32)c(C)c1 | inactive: -21.3%
CCOCCCNC(=O)Cn1nc(C)n2c(cc3cc(C)ccc32)c1=O | inactive: -1.28%

— PubChem BioAssay AID1159614 (National Center for Advancing Translational Sciences (NCATS), 2016)
